Test results: the RNAGym collection of RNA variant scans (doi:10.1093/nar/gkz1192)
The source gives no read counts; variants with many changes may rest on few reads.

B1: CPEB3 Ribozyme (parent)
chain: UAACAGGGGGCCACAGCAGAAGCGUUCACGUCGCAGCCCCUGUCAGAUUCUGGUGAAUCUGCGAAUUCUGCUGUAUAUCUC

Variants of: B1
Experiment: self-cleavage, relative activity (ratio to wild type); higher = more cleavage; in vitro, sequencing
Procedure, shortened: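 Relative activity was defined as the cleaved/total read fraction for a variant divided by the same fraction for the unmutated ribozyme. CPEB3 self-cleaving ribozyme libraries were made by rounds of error-prone PCR, barcoded, and transcribed in vitro with T7 RNA polymerase for 5 hours at 37°C, and cleavage ran through transcription plus a 15 min DNase I step before EDTA. Illumina sequencing of template-switched reverse transcripts gave the reads, and DNA sequencing mapped the barcodes. Averages come from three batches, using variants with at least 5 reads.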

Row | Variant | self-cleavage
1 | UAACAGGGGGCCACAGCAGAAGCGAUCACGUCGCGGCCCCUGUCAGAUUCUGGUGAAUCAGCGAAUUCUGCUGUAUAUCUC [U25A A35G U60A] | 0.07
2 | UAACAGGGGGCCACAGCAGAAGCGAUCACGUCGCGGCCCCUGUCAGAUUCUGGUGAAUCUGCGAACUCUGCUGUAAAUCUC [U25A A35G U66C U76A] | 0.31
3 | UAACAGGGGGCCACAGCAGAAGCGAUCACGUCGCAGCCCCUGUCAGGUUCUGGUGAAUCUGCGUAUUCUGCCGUAUAUCUC [U25A A47G A64U U72C] | 0.23
4 | UAACAGGGGGCCACAGCAGAAGCGAUCACGUCGCGGCCCCUGUCAGAUUCUGGUGGAUCAGCGAGUUCUGCUGUAUACCUC [U25A A35G A56G U60A A65G U78C] | 0.04
5 | UAACAGGGGGCCACAGCAGAAGCGAUCACGUCGCAGCCCCUGUCAGAUUCUGGUGAAUCUGCGAAUUCUGCUGUCUACCUC [U25A A75C U78C] | 0.11
6 | UAACAGGGGGCCACAGCAGAAGCGAUCACGUCGCAGCCCCUGUCAGAUUCUGGUGAAUCUGCGUACUCUGCUGUAUAUCUC [U25A A64U U66C] | 0.15
7 | UAACAGGGGGCCACAGCAGAAGCGAUCACGUCGCAGCCCCUGUCAGAUUGCGCUGAGUCUGCGAAUUCUGCUGUAUAUCUC [U25A C50G U51C G53C A57G] | 0.04
8 | UAACAGGGGGCCACAGCAGAAGCGAUCACGUCGCAGCCCCUGUCAGGUUCUGGUGAAUUUGCGAAUUCUGCCGUACAUUUC [U25A A47G C59U U72C U76C C79U] | 0.08
9 | UAACAGGGGGCCACAGCAGAAGCGAUCUCGUCACAUCCCCUGUCAGAUUCUGGUGAAUCUGCGAAUUCUGCUGUAUAUCUC [U25A A28U G33A G36U] | 0.13
10 | UAACAGGGGGCCACAGCAGAAGCGAUCAUGUCGCAGCCCCUGUCAGGUUCUGGUGAAUCUGCGAAUUCAGCUGUUUAUCUC [U25A C29U A47G U69A A75U] | 0.05
11 | UAACAGGGGGCCACAGCAGAAGCGAUCUCGCCGCUGCCCCUGUCAGAUUCUGGUGGAUCUGCGAAUUCUGCUGUAUACCUC [U25A A28U U31C A35U A56G U78C] | 0.04
12 | UAACAGGGGGCCACAGCAGAAGCGAUCACGUCGCAGCCCCUGUCAGAUUCUGGUGAAUCUGCGAAUUCUGCUGUGUAUCCC [U25A A75G U80C] | 0.18
13 | UAACAGGGGGCCACAGCAGAAGCGAUCACGUCGCAGCCCCUGUCAGAUUCUGGUGGAUCUGCGAAUUCUGCGGUAUAUCUC [U25A A56G U72G] | 0.23
14 | UAACAGGGGGCCACAGCAGAAGCGAUCACGUCGCAGCCCCUGUCAGAUUCUGGUGAGUCUGCGGAUUCCGCGGUAUAUCUC [U25A A57G A64G U69C U72G] | 0.07
15 | UAACAGGGGGCCACAGCAGAAGCGAUCACGUCGCAGCCCCUGUCAGAUUCUGGUGAAUCUGCGGAUCCUGCUGUAUAUCUC [U25A A64G U67C] | 0.34
16 | UAACAGGGGGCCACAGCAGAAGCGAUCACGUCGCAGCCCAUGUCAGAUUCAGGUGAAUCUGCGAAUUCUGCUGUAUAUCUC [U25A C40A U51A] | 0.09
17 | UAACAGGGGGCCACAGCAGAAGCGAUCACACCGCAGCCCCUGUCAGAUUCUGGUGAAUCUGCGAAUUCUGCUGUAUAUCUC [U25A G30A U31C] | 0.16

Row | Variant | self-cleavage
18 | UAACAGGGGGCCACAGCAGAAGCGAUCACGUCGCAGCCCCUGUCGGAUUCUGGUGAUUCUGCGAGUUCUGCUGUAUAACUC [U25A A45G A57U A65G U78A] | 0.06
19 | UAACAGGGGGCCACAGCAGAAGCGAUCACGUCGCAGCCACUGUCAGUUUCUGGUGAAUCUGCGAAUUCUGCUGUAUAUCCC [U25A C39A A47U U80C] | 0.19
20 | UAACAGGGGGCCACAGCAGAAGCGAUCACGUCGCAGCCCCUGUCAGAUUCUGGUGAAUCUGCGGAUUCUGCUGCAUAUCUC [U25A A64G U74C] | 0.2
21 | UAACAGGGGGCCACAGCAGAAGCGAUUACGUCGCAGCCCCUGUCUGAUACUGGUGAAUCUGCGAAUUCUGCUGUAUAUCUC [U25A C27U A45U U49A] | 0.1
22 | UAACAGGGGGCCACAGCAGAAGCGAUCACGUCGCAGCCCCUGUCGGAUUCUGGUGAAGCUGUGAAUUCUGCUGUAUAUCUC [U25A A45G U58G C62U] | 0.05
23 | UAACAGGGGGCCACAGCAGAAGCGAUCACGUCGCAGCCCUUGUCUGAUUCUGGUGAAUCUGCGAAUUCUGCAGUAUAUCUC [U25A C40U A45U U72A] | 0.13
24 | UAACAGGGGGCCACAGCAGAAGCGAUCACGUCGCAGUCGCUGUCAGAUUCUGGUGAAUCUGCGAAUUCUGCUGGAUAUCAC [U25A C37U C39G U74G U80A] | 0.2
25 | UAACAGGGGGCCACAGCAGAAGCGAUCACGUCGCAGCCCCUGUCAGAUUCUGGUGUAUCUGCGAGUUCUGCUGUAUUUCUC [U25A A56U A65G A77U] | 0.32
26 | UAACAGGGGGCCACAGCAGAAGCGAUCACGUCGCAGCCCCUGUCAGAUUCUGGUGAAUCUGCGGAUUCUGCUGUAUAACUC [U25A A64G U78A] | 0.17
27 | UAACAGGGGGCCACAGCAGAAGCGAUGACGUGGCAGCCCCUGUCUGAUUCUGGUGAAUCUGCGAAUUCUGCUGUAUGUCUC [U25A C27G C32G A45U A77G] | 0.17
28 | UAACAGGGGGCCACAGCAGAAGCGAUCACGUCGCAGCCCCUGUCGGAUUCUGGUGAAGGUGCGAAUUCUGCUGUAUAUCUC [U25A A45G U58G C59G] | 0.16
29 | UAACAGGGGGCCACAGCAGAAGCGAUCACGUCGCGGCCCCUGUCAGAUUCUGGUGAAUCUGCGCAUUCUGCCGUAUAUCUC [U25A A35G A64C U72C] | 0.11
30 | UAACAGGGGGCCACAGCAGAAGCGAUCACGUCGCGGCCCCUAUCAGAUUCAGGUGAAUCUGCGAAUUCUGCUGUAUAUCUC [U25A A35G G42A U51A] | 0.21
31 | UAACAGGGGGCCACAGCAGAAGCGAUCACGUCGCAGCCCCUGUCUGAUUCUGGUGUAUCUGCGAGUUCUGCUGUAUAUCUC [U25A A45U A56U A65G] | 0.11
32 | UAACAGGGGGCCACAGCAGAAGCGAUCACGUCGCAGCCCCUGUCUGAUUCUGGUGAAUCUGCGAAUUCCGCUGUAUAUCUC [U25A A45U U69C] | 0.13
33 | UAACAGGGGGCCACAGCAGAAGCGAUCACGUCGCGGCCCCUGUCAGAUUCUGGUGAAUCUGCGAGUUCAGCUGUAUAUCCC [U25A A35G A65G U69A U80C] | 0.1
34 | UAACAGGGGGCCACAGCAGAAGCGAUCACGUCGCAGCCCCUGUCAGGUUCUGGUGAAUCUGCGAAUUCUGCUAAUUAUCUC [U25A A47G G73A U74A A75U] | 0.13
